# Source: publication PMC4336329 (PLoS ONE, 2015)
# The whole screen tested about 310,000 compounds, of which about 14,000 (4.5%) showed an effect of 50% or more. Effects have a minus sign here. The list shows a part of the results.
# Target: human ether-à-go-go-related gene (hERG) potassium channel (human, UniProt Q12809)
# Assay: primary screen, population patch clamp on CHO cells stably expressing hERG
# 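Further: peak tail current of the secondary pulse compared with the same well before compound.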
# Chain of human ether-à-go-go-related gene (hERG) potassium channel (Q12809 whole entry, looked up): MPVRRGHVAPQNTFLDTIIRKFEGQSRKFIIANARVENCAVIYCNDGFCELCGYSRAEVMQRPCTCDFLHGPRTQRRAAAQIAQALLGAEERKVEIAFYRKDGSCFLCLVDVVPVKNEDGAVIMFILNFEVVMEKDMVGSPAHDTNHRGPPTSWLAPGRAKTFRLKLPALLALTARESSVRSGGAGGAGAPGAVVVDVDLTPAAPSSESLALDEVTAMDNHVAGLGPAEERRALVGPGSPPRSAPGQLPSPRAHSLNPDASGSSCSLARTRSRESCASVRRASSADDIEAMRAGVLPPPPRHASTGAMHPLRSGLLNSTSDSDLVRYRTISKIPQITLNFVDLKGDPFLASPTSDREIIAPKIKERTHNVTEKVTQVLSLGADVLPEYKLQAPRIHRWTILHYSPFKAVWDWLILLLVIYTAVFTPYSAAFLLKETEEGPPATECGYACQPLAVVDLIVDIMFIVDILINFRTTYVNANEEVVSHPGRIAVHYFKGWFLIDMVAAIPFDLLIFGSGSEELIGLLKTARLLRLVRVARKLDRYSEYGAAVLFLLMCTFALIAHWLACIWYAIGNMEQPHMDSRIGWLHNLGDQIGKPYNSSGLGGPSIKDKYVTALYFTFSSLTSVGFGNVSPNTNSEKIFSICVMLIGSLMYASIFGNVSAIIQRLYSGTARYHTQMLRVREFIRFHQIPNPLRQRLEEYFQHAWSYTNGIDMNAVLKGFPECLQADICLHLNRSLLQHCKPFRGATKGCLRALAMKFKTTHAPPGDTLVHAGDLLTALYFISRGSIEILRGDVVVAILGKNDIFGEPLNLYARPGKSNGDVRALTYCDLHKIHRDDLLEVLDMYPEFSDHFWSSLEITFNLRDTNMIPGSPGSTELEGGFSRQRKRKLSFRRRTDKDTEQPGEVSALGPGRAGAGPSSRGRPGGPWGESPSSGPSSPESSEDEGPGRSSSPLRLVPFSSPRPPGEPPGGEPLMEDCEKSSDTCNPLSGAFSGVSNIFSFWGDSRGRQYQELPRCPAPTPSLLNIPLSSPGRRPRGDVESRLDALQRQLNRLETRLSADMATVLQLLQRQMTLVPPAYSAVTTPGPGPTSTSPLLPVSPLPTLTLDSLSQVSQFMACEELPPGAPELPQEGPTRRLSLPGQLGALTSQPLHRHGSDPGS
row,Compound,"hERG current change (%, negative = inhibition) at 10uM"
1,CC1(C)CC(=O)C2=C(C1)N1C(=C(C#N)C2c2ccccc2Cl)N=C(N)c2ccccc21 (stereo not shown),-15.8%
2,CCc1noc(C)c1C(=O)Nc1cc(C(F)(F)F)ccc1-n1cncn1,-21.3%
3,CCCn1c(SCC(=O)Nc2cc(Cl)ccc2OC)n[nH]c1=O,-24.7%
4,S=C(NCCc1cccc(Cl)c1)NC1CCCCC1,6.84%
5,O=C(O)C1(P(=O)(c2ccccc2)c2ccccc2)CCC1,-3.46%
6,COc1ccc(C(=O)NCc2ccc(Cl)cc2)cc1S(=O)(=O)N1CCCC1,-39.2%
7,COC(=O)C1=C[C@@H](C(=O)OC)[C@@H]2C3=C(C(=O)[C@@]2(C)NC(=O)c2ccccc2)[C@H](c2ccccc2)n2c(=O)n(-c4ccccc4)c(=O)n2[C@@H]3C1,20.6%
8,Cc1cc(Cl)ccc1NC(=S)NCc1ccccc1,13.6%
9,COc1cc2c(cc1OC)CN(Cc1ccc(F)cc1)CC2,-19%
10,COc1cc(-c2n[nH]c(=S)n2-c2ccc(Br)cc2)cc(OC)c1OC,6.64%
11,Cc1cccc(OCC2=NS(=O)(=O)c3ccccc3N2)c1,-25.8%
12,Cc1cccn2c(=O)c(C=O)c(N3CC(C)OC(C)C3)nc12 (stereo not shown),28.3%
13,Fc1ccccc1N1CCN(CCCc2ccccc2)CC1,-64.7%
14,CC1CCCCN1CCNC(=O)Cn1nc(-c2ccccc2)ccc1=O (stereo not shown),3.4%
15,CCOC(=O)c1cc2c(ccn2C)n1CC(=O)N(C)C,9.18%
16,CCOC(=O)CN1CC23C=CC(O2)C(C(=O)NCc2ccc(F)cc2)C3C1=O (stereo not shown),-0.2%
17,CCOc1ccc(-n2c(Cc3ccccc3)nnc2SCc2c(C)noc2C)cc1,-74.1%
18,O=C(NC1CCCC1)C(c1ccc(F)cc1)N(Cc1ccc(Cl)cc1)C(=O)CCl (stereo not shown),-14.2%
19,CC(C)c1nnc(NC(=O)Cn2nc(-c3ccc4c(c3)OCCO4)ccc2=O)s1,4.27%
20,O=C(CSc1nc2ccccc2c(=O)n1-c1ccc(F)cc1)Nc1ccc(N2CCOCC2)cc1,-6.58%
21,CC(C)(C)N1CC(c2nc3ccccc3n2Cc2ccccc2)CC1=O (stereo not shown),-47.2%
22,CC(C)CC(CC(C)C)=NNC(=O)c1ccc(CSc2nncn2C)cc1,13.7%

row,Compound,"hERG current change (%, negative = inhibition) at 10uM"
1,CC(=O)n1c2ccccc2c2nc(NC(C)C)sc21,-3.77%
2,Cc1ccc(C2Nc3ccccc3NC3=C2C(=O)CC(C)(C)C3)c(O)c1 (stereo not shown),3.15%
3,CCN1CCN(S(=O)(=O)c2ccc(Cl)c(C(=O)Nc3ccccc3N3CCOCC3)c2)CC1,11.8%
4,O=C(Cc1ccccc1)N1CCN(S(=O)(=O)c2ccc([N+](=O)[O-])cc2)CC1,-64%
5,O=C1c2ccccc2NC(c2cccc([N+](=O)[O-])c2)N1CCc1ccccc1 (stereo not shown),-31.3%
6,Cc1cc(N2CCN(S(=O)(=O)c3ccc(C)c(C)c3)CC2)c2ccccc2n1,-64.6%
7,O=C(NN=C1c2ccccc2-c2ccccc21)c1ccccc1Br,-4.41%
8,Cc1cc(NC(=O)CN2CCN(S(=O)(=O)c3ccc(Cl)cc3)CC2)no1,-15.4%
9,Cc1ccc(C(=O)Oc2cc(N)n(S(=O)(=O)c3ccc(F)cc3)n2)cc1,19.9%
10,CCOc1ccc(OCC)c(NC(=O)C2CCN(S(=O)(=O)c3cnc[nH]3)CC2)c1,-9.97%
11,O=C(Nc1nnc(-c2ccccc2F)s1)c1ccccc1F,-1.93%
12,COc1ccc(-c2ccc(C#N)c(SCC(=O)NCc3ccco3)n2)cc1OC,-14.3%
13,CCc1ccc(OCC(=O)Nc2ccc(N3CCN(C(=O)c4ccccc4)CC3)cc2)cc1,-10.1%
14,CC(=O)N1c2ccc(S(=O)(=O)N3CCCC3)cc2CC1C(=O)NC(C)C (stereo not shown),14.4%
15,O=C1CCCC(O)=C1N=Nc1ccc(S(=O)(=O)N2CCOCC2)cc1,2.06%
16,COc1cc(NS(=O)(=O)c2ccc(NC(=S)NC(=O)c3ccccc3)cc2)nc(OC)n1,-6.97%
17,Cc1cc(=O)n2nc(N3CCCC3C(=O)Nc3ccc(C(C)C)cc3)sc2n1 (stereo not shown),-41.3%
18,COc1ccc(CNC(=O)COC(=O)/C=C/c2cccc(Br)c2)cc1,18.9%
19,CCCCCOC(=O)c1cc(=O)[nH]c2ccccc12,4.7%
20,CCCCC(=O)c1c(O)c2ccccc2oc1=O,20.5%
21,O=C(OCC#CCSc1nnc(-c2cccc3ccccc23)o1)c1ccco1,-2.9%
22,CCOC(=O)CCCNC(=O)COC(=O)c1cc(Br)c(Br)s1,3.74%

row,Compound,"hERG current change (%, negative = inhibition) at 10uM"
1,O=C(CC1Nc2ccccc2NC1=O)Nc1cc(Cl)cc(Cl)c1 (stereo not shown),5.99%
2,Cc1ccc(CO/N=C/c2c(O)cc(C)oc2=O)cc1,30.9%
3,Cc1cc(C)c(S(C)(=O)=O)c(Oc2ccccc2C)n1,18.6%
4,O=C1c2cccc3cccc(c23)C(=O)N1CCN1CCN(CC(O)COc2ccccc2)CC1 (stereo not shown),-60%
5,NC(=O)c1nsc(C(=O)N(c2ccccc2)C(C(=O)NC2CCCC2)c2ccc3ncccc3c2)c1N (stereo not shown),14.9%
6,Cc1cc(C(=O)Nc2c(F)c(F)c(F)c(F)c2F)n(-c2ccccc2)n1,-59.1%
7,CCC(C(=O)OC)n1cnc2c(nnn2-c2ccc(OC)cc2)c1=O (stereo not shown),-6.48%
8,CCN(CC)c1ccc(NC(=O)C2=CCN(S(=O)(=O)c3ccc(F)cc3)CC2)c(C)c1,-6.97%
9,Cc1nn(-c2ccccc2)c(Cl)c1C1C(C#N)=C(N)OC2=C1C(=O)CCC2 (stereo not shown),-9.97%
10,O=C(NCCCN1CCOCC1)c1sc2ccccc2c1Cl,-9.81%
11,O=C(CN(C(=O)CNS(=O)(=O)c1ccccc1)c1ccc(F)cc1)NCc1ccco1,11%
12,CC(=O)Nc1ccc2nc3c(=O)n(C)c(=O)n(C)c3nc2c1,5.46%
13,CCN(CC)S(=O)(=O)c1ccc2[nH]c(=O)cc(C(=O)Nc3ccccc3N3CCOCC3)c2c1,-18.9%
14,CC(C)N(C)CCOC(=O)C1COc2ccccc2O1.Cl (stereo not shown),13.9%
15,COc1ccccc1N1CCN(C(=O)c2ccoc2C)CC1,13.2%
16,CCNC(=S)N1CCN(CC)CC1.O=C(O)C(=O)O,-5.33%
17,COc1ccc(OC)c(S(=O)(=O)NCc2ccccc2)c1,-17.3%
18,Cc1ccc(OCC(=O)N2CCCc3ccccc32)cc1,-13.6%
19,COc1ccc(N2CCN(C(=O)C3CCN(S(=O)(=O)c4ccc5c(c4)oc(=O)n5C)CC3)CC2)cc1,2.75%
20,Cn1c(CSc2ccccc2)c(C#N)c2ccccc21,-5.9%
21,COc1ccccc1N1CCN(Cc2cc(=O)n3ccsc3n2)CC1,7.83%
22,Nc1cccc(Oc2ccc3c(c2)C(=O)N(CC2CCCO2)C3=O)c1 (stereo not shown),1.72%

row,Compound,"hERG current change (%, negative = inhibition) at 10uM"
1,Cc1c(Cl)cccc1NC(=S)NCC(C)C,12.3%
2,O=C(c1ccc2ccccc2n1)N(CCO)Cc1ccccc1,13.5%
3,O=C(N/N=C/c1cccc(F)c1)c1csc2c1CCCC2,-30%
4,COc1ccc(Cl)cc1NC(=O)Nc1cccc([N+](=O)[O-])c1C,15.5%
5,Cc1ccc(NC(=O)NCc2cccnc2)cc1Cl,4.73%
6,Cc1cc(C)n(CNc2nc(C(F)(F)F)cs2)n1,6.5%
7,N#Cc1c(-c2ccccc2Cl)cc(-c2ccccc2)nc1Br,28.4%
8,CCCCN(C)C(=O)c1nc2ccccn2c1CN1CCN(C(=O)c2cccs2)CC1,-51.8%
9,Cc1nn(-c2ccc(F)cc2)c(Cl)c1C(=O)N(C)CC(=O)Nc1cccc(F)c1,-15.9%
10,Cc1cc(=O)oc(C)c1C(=O)N[C@@H]1CCCCNC1=O,7.72%
11,Cc1nc(-c2cccc(NC(=O)c3cccc(S(=O)(=O)N4CCCC4)c3)c2)cs1,-18.7%
12,Cc1[nH]c2ccccc2c1SCC(=O)NNC(=O)Nc1ccc(OC(F)(F)F)cc1,8.03%
13,COc1ccc(C2(C)CC(C)(C)Nc3ccccc32)cc1 (stereo not shown),13.8%
14,C/C(=N\NC(=O)c1ccc(N)cc1)C1CC1,8.16%
15,CC1(C)NC(=O)N(CCSc2ccc(Cl)cc2)C1=O,8.33%
16,C=CCNC(=S)Nc1ccc(Cl)cc1F,18.6%
17,Cc1cc(C)n(S(=O)(=O)c2ccc(C)c(C)c2)n1,19.7%
18,O=P(Cc1ccncc1)(c1ccccc1)c1ccccc1,-5.14%
19,Cc1csc(SCC(=O)Nc2nncs2)n1,3.68%
20,CCC1(O)CC(C(=O)OC)=NN1C(=O)c1ccccc1 (stereo not shown),7.94%
21,COc1ccc(NC(=O)c2ccco2)cc1S(=O)(=O)N1CCCCC1,-46%
22,COc1ccc(CCn2c(C)cc(C(=O)COC(=O)c3cnc(C)cn3)c2C)cc1,-29%
